Source: patent US20180340025A1 (Novartis, published 2018)
Residue numbers refer to the chain shown, from its start. Numbers in names are those of the source.

B1: BAP050-hum01 (antibody, human IgG4 S228P, kappa)
heavy: EVQLVQSGAEVKKPGATVKISCKVSGFTLTNYGMNWVRQAPGQGLEWMGWINTDTGEPTYADDFKGRFVFSLDTSVSTAYLQICSLKAEDTAVYYCARNPPYYYGTNNAEAMDYWGQGTTVTVSSASTKGPSVFPLAPCSRSTSESTAALGCLVKDYFPEPVTVSWNSGALTSGVHTFPAVLQSSGLYSLSSVVTVPSSSLGTKTYTCNVDHKPSNTKVDKRV[omitted - human IgG4 Fc with S228P (EU numbers)]
light: DIQMTQSPSSLSASVGDRVTITCSSSQDISNYLNWYQQKPGKAPKLLIYYTSTLHLGVPSRFSGSGSGTDFTFTISSLEAEDAATYYCQQYYNLPWTFGQGTKVEIKRTVAAPSVFIFPPSDEQLKSGTASVVCLLNNFYPREAKVQWKVDNALQSGNSQESVTEQDSKDSTYSLSSTLTLSKADYEKHKVYACEVTHQGLSSPVTKSFNRGEC
notes: humanized IgG4(S228P)/kappa, transient CHO supernatant; also called humanized clone No. 01
B2: BAP050-hum18 (antibody, human IgG4 S228P, kappa)
heavy: B1 heavy
light: B1 light with D1A, M4L, K42Q, K45R, F73L, E79Q, A80P, A83F
notes: humanized IgG4(S228P)/kappa, transient CHO supernatant

Key:
[1] = target: T1, human LAG-3 expressed on cells (human, UniProt P18627 23-525); assay: rank of the clone by the competition binding data (test mAb against FITC-labeled murine BAP050 on LAG-3-expressing CHO cells), curve position relative to the chimeric mAb in two experiments
T1 construct: whole, on cells; Treated as one protein; the host cell is named under assay; also called LAG-3-expressing CHO cells; LAG-3-transfected CHO cells
T1 sequence (looked up): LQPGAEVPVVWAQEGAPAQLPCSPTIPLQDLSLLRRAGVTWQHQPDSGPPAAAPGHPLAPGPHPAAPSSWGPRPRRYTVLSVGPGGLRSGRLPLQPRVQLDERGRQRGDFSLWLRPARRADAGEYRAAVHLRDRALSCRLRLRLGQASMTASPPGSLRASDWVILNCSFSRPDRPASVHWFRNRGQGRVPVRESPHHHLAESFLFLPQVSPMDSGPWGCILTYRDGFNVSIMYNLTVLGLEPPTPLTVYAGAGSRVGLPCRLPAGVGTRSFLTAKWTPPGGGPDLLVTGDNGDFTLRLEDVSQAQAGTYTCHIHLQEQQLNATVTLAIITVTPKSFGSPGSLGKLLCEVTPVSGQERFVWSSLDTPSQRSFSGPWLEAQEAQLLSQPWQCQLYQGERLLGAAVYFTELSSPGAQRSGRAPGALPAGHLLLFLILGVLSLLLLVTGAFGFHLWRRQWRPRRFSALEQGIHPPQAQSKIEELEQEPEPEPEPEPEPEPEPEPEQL
Protocol: Incubations with the mAb mixtures having different concentration ratios of test mAb to labeled mAb was at 4° C. for 30 min. […] The experiment was performed twice.
Such a ranking system was used in FIG. 6.

[2] = target: T1, human LAG-3 expressed on cells; assay: rank of the clone among the humanized clones by the FACS binding data on LAG-3-expressing cells

Binder	Ranking, Compet. data [1]	Ranking, Binding data [2]
B1	2	1
B2	> 3	8
